This is an account of results in the supplement of paper PMC10369915.

The list shows a part of the results. No stated cut-off is given here; in the data, active = 3.2 or more and inactive = the rest. Most of these values are background signal.
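Further: displayed peptides selected on beads carrying the immobilized SH2 domain, with library peptides lacking any tyrosine serving as negative controls.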

The first test has as its target SHP2 C-SH2 domain E139D. In words: enrichment score (SH2-bound / input frequency) (ratio); bacterial display of known human phosphotyrosine sites (pTyr-Var adds point mutants) read by sequencing; higher = stronger binding; tyrosines were phosphorylated by kinases first. To be noted: peptide library: pTyr-Var.
For the molecule ETEMLYGSARR [PRC1_Y464_P468R], the enrichment score was inactive: 0.863.
For LGPSDYFGEIV [PRKAR1A_Y323_A328V], the enrichment score is inactive: 0.86.
Regarding FGGTVCHSPVS [PRC1_Y511_Y511C], the enrichment score was inactive: 0.84.
For the molecule CGTPDYIDPEI [PRKCG_Y521_A523D], the enrichment score was inactive: 0.79.
Still for that read-out and setting: the result for LLQAEYWHDPI [PPT1_Y185_V181L] reads inactive: 1.22.
Same read-out and setting: the result for CGTPDYIAREI [PRKCG_Y521_P524R] reads inactive: 0.741; that for GLVFLYVEKNQ [PRELP_Y156_M157V], inactive: 2.68; that for GLVFLYMEKNQ [PRELP_Y156], inactive: 1.94.
In the case of RSIGEYDVLRG [PRKDC_Y2936], the enrichment score was inactive: 0.807.
Still for that read-out and setting: the result for LVQAEYWRDPI [PPT1_Y185_H187R] reads inactive: 1.04; that for RNIQQYNSFVS [PRKAR1A_Y373], inactive: 0.712; that for NQILPYIKELV [PPP2R1B_Y341], inactive: 1.21.
On to LNAGAYSKVVQ [PPT1_Y172], for which the enrichment score was inactive: 1.09.
Take LRWREYQRQDY [PRKRIP1_Y90_R87W]: the enrichment score was inactive: 2.31.
The same measure, in the same setting: the value for FSAPNCCYRCG [PPP2CA_Y265_Y265C] was inactive: 0.772.
The same measure, in the same setting: the result for REIIAYQPFGK [PRKCG_Y529_P524R_YF] reads inactive: 1.16; that for FENGEYIVRQG [PRKG1_Y247_I249V_YF], inactive: 0.754.
Consider LRGEDCGFSVD [PRKCI_Y430_Y430C], for which the enrichment score was inactive: 0.938.

The next test concerns the target SHP2 C-SH2 domain wild-type. The test is described as above. The following applies: peptide library: pTyr-Var.
With ETEMLYGSARR [PRC1_Y464_P468R], the enrichment score is inactive: 0.705.
The same measure, in the same setting: the result for LGPSDYFGEIV [PRKAR1A_Y323_A328V] reads inactive: 0.833; that for FGGTVCHSPVS [PRC1_Y511_Y511C], inactive: 0.871; that for CGTPDYIDPEI [PRKCG_Y521_A523D], inactive: 0.947.
Same read-out and setting: the value for LLQAEYWHDPI [PPT1_Y185_V181L] was inactive: 1.39; that for CGTPDYIAREI [PRKCG_Y521_P524R] was inactive: 1.03.
The same measure, in the same setting: the result for GLVFLYVEKNQ [PRELP_Y156_M157V] reads inactive: 2.16.
With GLVFLYMEKNQ [PRELP_Y156], the enrichment score was inactive: 2.22.
The same measure, in the same setting: the result for RSIGEYDVLRG [PRKDC_Y2936] reads inactive: 0.763.
Same read-out and setting: the result for LVQAEYWRDPI [PPT1_Y185_H187R] reads inactive: 1.04; that for RNIQQYNSFVS [PRKAR1A_Y373], inactive: 0.723.
Same read-out and setting: the result for NQILPYIKELV [PPP2R1B_Y341] reads inactive: 1.31; that for LNAGAYSKVVQ [PPT1_Y172], inactive: 1.79.
For the molecule LRWREYQRQDY [PRKRIP1_Y90_R87W], the enrichment score was inactive: 1.89.
Same read-out and setting: the result for FSAPNCCYRCG [PPP2CA_Y265_Y265C] reads inactive: 0.96; that for REIIAYQPFGK [PRKCG_Y529_P524R_YF], inactive: 0.891.
Turning to FENGEYIVRQG [PRKG1_Y247_I249V_YF], the enrichment score was inactive: 0.633.
LRGEDCGFSVD [PRKCI_Y430_Y430C]: the enrichment score was inactive: 0.991.

The next test addresses SHP2 N-SH2 domain L43F. The test is described as above. To be noted: peptide library: pTyr-Var.
On to ETEMLYGSARR [PRC1_Y464_P468R], for which the enrichment score is inactive: 0.688.
On the same count and under the same terms, the value for LGPSDYFGEIV [PRKAR1A_Y323_A328V] was inactive: 0.868; that for FGGTVCHSPVS [PRC1_Y511_Y511C] was inactive: 0.795; that for CGTPDYIDPEI [PRKCG_Y521_A523D] was inactive: 0.849.
Turning to LLQAEYWHDPI [PPT1_Y185_V181L], the enrichment score was inactive: 1.32.
Take CGTPDYIAREI [PRKCG_Y521_P524R]: the enrichment score was inactive: 0.788.
The same measure, in the same setting: the value for GLVFLYVEKNQ [PRELP_Y156_M157V] was inactive: 2.23; that for GLVFLYMEKNQ [PRELP_Y156] was inactive: 2.19.
The same measure, in the same setting: the value for RSIGEYDVLRG [PRKDC_Y2936] was inactive: 0.913; that for LVQAEYWRDPI [PPT1_Y185_H187R] was inactive: 0.897.
For the molecule RNIQQYNSFVS [PRKAR1A_Y373], the enrichment score is inactive: 0.876.
Same read-out and setting: the value for NQILPYIKELV [PPP2R1B_Y341] was inactive: 0.903; that for LNAGAYSKVVQ [PPT1_Y172] was inactive: 0.922.
Still for that read-out and setting: the value for LRWREYQRQDY [PRKRIP1_Y90_R87W] was inactive: 1.82; that for FSAPNCCYRCG [PPP2CA_Y265_Y265C] was inactive: 0.819; that for REIIAYQPFGK [PRKCG_Y529_P524R_YF] was inactive: 0.732.
As for FENGEYIVRQG [PRKG1_Y247_I249V_YF], the enrichment score is inactive: 0.909.
For the molecule LRGEDCGFSVD [PRKCI_Y430_Y430C], the enrichment score is inactive: 0.942.

The target in a further test is SHP2 N-SH2 domain T42A. The description is as above. The following applies: peptide library: pTyr-Var.
For ETEMLYGSARR [PRC1_Y464_P468R], the enrichment score was inactive: 0.794.
Still for that read-out and setting: the value for LGPSDYFGEIV [PRKAR1A_Y323_A328V] was inactive: 0.675.
In the case of FGGTVCHSPVS [PRC1_Y511_Y511C], the enrichment score is inactive: 0.725.
As to CGTPDYIDPEI [PRKCG_Y521_A523D], the enrichment score is inactive: 0.72.
LLQAEYWHDPI [PPT1_Y185_V181L]: the enrichment score was inactive: 0.929.
Same read-out and setting: the result for CGTPDYIAREI [PRKCG_Y521_P524R] reads inactive: 0.731; that for GLVFLYVEKNQ [PRELP_Y156_M157V], inactive: 2.03.
In the case of GLVFLYMEKNQ [PRELP_Y156], the enrichment score is inactive: 1.89.
On the same count and under the same terms, the result for RSIGEYDVLRG [PRKDC_Y2936] reads inactive: 0.652; that for LVQAEYWRDPI [PPT1_Y185_H187R], inactive: 0.878; that for RNIQQYNSFVS [PRKAR1A_Y373], inactive: 0.672.
As to NQILPYIKELV [PPP2R1B_Y341], the enrichment score is inactive: 0.862.
On the same count and under the same terms, the result for LNAGAYSKVVQ [PPT1_Y172] reads inactive: 0.887; that for LRWREYQRQDY [PRKRIP1_Y90_R87W], inactive: 1.6.
On to FSAPNCCYRCG [PPP2CA_Y265_Y265C], for which the enrichment score is inactive: 0.797.
The same measure, in the same setting: the result for REIIAYQPFGK [PRKCG_Y529_P524R_YF] reads inactive: 0.534; that for FENGEYIVRQG [PRKG1_Y247_I249V_YF], inactive: 0.589.
As for LRGEDCGFSVD [PRKCI_Y430_Y430C], the enrichment score is inactive: 0.77.

Another test concerns the target SHP2 N-SH2 domain T52S. Described as above. The following applies: peptide library: pTyr-Var.
For the molecule ETEMLYGSARR [PRC1_Y464_P468R], the enrichment score is inactive: 0.585.
On the same count and under the same terms, the result for LGPSDYFGEIV [PRKAR1A_Y323_A328V] reads inactive: 0.714.
With FGGTVCHSPVS [PRC1_Y511_Y511C], the enrichment score was inactive: 0.861.
Consider CGTPDYIDPEI [PRKCG_Y521_A523D], for which the enrichment score was inactive: 0.807.
The same measure, in the same setting: the value for LLQAEYWHDPI [PPT1_Y185_V181L] was inactive: 1.25; that for CGTPDYIAREI [PRKCG_Y521_P524R] was inactive: 0.721; that for GLVFLYVEKNQ [PRELP_Y156_M157V] was inactive: 2.42.
The same measure, in the same setting: the result for GLVFLYMEKNQ [PRELP_Y156] reads inactive: 2.01.
With RSIGEYDVLRG [PRKDC_Y2936], the enrichment score was inactive: 0.638.
Still for that read-out and setting: the value for LVQAEYWRDPI [PPT1_Y185_H187R] was inactive: 0.991; that for RNIQQYNSFVS [PRKAR1A_Y373] was inactive: 0.77.
On the same count and under the same terms, the result for NQILPYIKELV [PPP2R1B_Y341] reads inactive: 1.06; that for LNAGAYSKVVQ [PPT1_Y172], inactive: 0.626.
On to LRWREYQRQDY [PRKRIP1_Y90_R87W], for which the enrichment score is inactive: 2.35.
FSAPNCCYRCG [PPP2CA_Y265_Y265C]: the enrichment score is inactive: 0.706.
Still for that read-out and setting: the result for REIIAYQPFGK [PRKCG_Y529_P524R_YF] reads inactive: 0.847; that for FENGEYIVRQG [PRKG1_Y247_I249V_YF], inactive: 0.617.
In the case of LRGEDCGFSVD [PRKCI_Y430_Y430C], the enrichment score is inactive: 0.927.

For the next test, the target named is SHP2 N-SH2 domain wild-type. The test is described as above. The following applies: peptide library: pTyr-Var.
With ETEMLYGSARR [PRC1_Y464_P468R], the enrichment score is inactive: 0.679.
On the same count and under the same terms, the result for LGPSDYFGEIV [PRKAR1A_Y323_A328V] reads inactive: 0.855.
In the case of FGGTVCHSPVS [PRC1_Y511_Y511C], the enrichment score was inactive: 1.05.
For the molecule CGTPDYIDPEI [PRKCG_Y521_A523D], the enrichment score was inactive: 1.01.
On the same count and under the same terms, the result for LLQAEYWHDPI [PPT1_Y185_V181L] reads inactive: 1.45; that for CGTPDYIAREI [PRKCG_Y521_P524R], inactive: 1.17; that for GLVFLYVEKNQ [PRELP_Y156_M157V], inactive: 2.52.
Same read-out and setting: the result for GLVFLYMEKNQ [PRELP_Y156] reads inactive: 2.23; that for RSIGEYDVLRG [PRKDC_Y2936], inactive: 0.774; that for LVQAEYWRDPI [PPT1_Y185_H187R], inactive: 1.01.
As to RNIQQYNSFVS [PRKAR1A_Y373], the enrichment score was inactive: 0.741.
The same measure, in the same setting: the value for NQILPYIKELV [PPP2R1B_Y341] was inactive: 1.53; that for LNAGAYSKVVQ [PPT1_Y172] was inactive: 0.9.
LRWREYQRQDY [PRKRIP1_Y90_R87W]: the enrichment score was inactive: 1.59.
FSAPNCCYRCG [PPP2CA_Y265_Y265C]: the enrichment score is inactive: 1.07.
Same read-out and setting: the result for REIIAYQPFGK [PRKCG_Y529_P524R_YF] reads inactive: 1.04.
On the same count and under the same terms, the result for FENGEYIVRQG [PRKG1_Y247_I249V_YF] reads inactive: 0.724; that for LRGEDCGFSVD [PRKCI_Y430_Y430C], inactive: 0.996.
